Assay results as given in PubChem BioAssay AID485344 (National Center for Advancing Translational Sciences (NCATS), 2010).
Among all 340,000 compounds or so, about 6,900 (2%) were called active. Rule as the data show it: active = inhibition above about 30%; inactive = below that, where a call was filed. The entries are a selection whose mix differs from that of the whole data set. Where no call is shown, the source filed none.

What follows are compounds tested against D(2) dopamine receptor (Homo sapiens) (UniProt P14416) (assay: HTS Assay for Allosteric Antagonists of the Human D2 Dopamine Receptor: Primary Screen for Antagonists). Settings: HEK293 TREx D2 cells, calcium flux, dopamine EC80; at 10 µM; stronger effect = higher value.
UniProt P14416, sequence (P14416 whole entry, looked up): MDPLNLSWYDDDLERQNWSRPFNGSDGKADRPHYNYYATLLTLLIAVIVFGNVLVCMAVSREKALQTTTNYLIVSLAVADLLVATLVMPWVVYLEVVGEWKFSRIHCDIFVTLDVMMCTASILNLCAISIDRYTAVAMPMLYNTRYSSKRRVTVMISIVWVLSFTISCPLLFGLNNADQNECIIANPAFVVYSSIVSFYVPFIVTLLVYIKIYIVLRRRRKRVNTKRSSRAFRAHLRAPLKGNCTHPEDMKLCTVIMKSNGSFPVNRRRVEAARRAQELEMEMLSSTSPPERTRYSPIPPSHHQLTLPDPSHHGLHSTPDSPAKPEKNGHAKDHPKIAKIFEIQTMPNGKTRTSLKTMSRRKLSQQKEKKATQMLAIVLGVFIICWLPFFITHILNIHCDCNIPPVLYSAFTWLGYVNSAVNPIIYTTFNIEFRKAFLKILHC
How it was run: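 Overnight-induced (tetracycline, 30 C) HEK293 T-REx cells carrying force-coupled D2 receive a no-wash calcium dye, then compound, then EC80 dopamine at 180 s; signals are read kinetically throughout.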
Also: 0% is about no effect.

Structure (SMILES)	inhibition
Cc1cccc(C2NC(=O)c3c(sc4c3CCN(C)C4)N2)c1O (configuration not stated)	2.15%
CCOC(=O)c1ccc(NC2=CC(c3ccc(Br)cc3)N(c3ccc(C(=O)OCC)cc3)C2=O)cc1 (configuration not stated)	7.13%
COC(=O)c1cc(Cl)c(NC(=O)/C=C/c2ccc(Cl)cc2Cl)cc1OC	-0.523%
COc1cccc(Cc2nc3ccccc3nc2SCC(=O)N2CCc3ccccc32)c1	5.55%
CCOC(=O)c1ccc(NC(=O)C(=O)NCc2ccco2)cc1	13.7%
Cc1cccc(Oc2nc3c(C)cccn3c(=O)c2/C=C(\C#N)c2nc3ccccc3s2)c1	-5.7%
O=C(NC1CC2CCC(C1)N2Cc1ccccc1)c1ccccc1Br (configuration not stated)	active: 67.5%
COc1ccc(Br)c2c1-c1nc(NC(=O)c3ccccc3SC)sc1C2	-19.7%
O=S(=O)(c1ccccc1)c1nc(-c2cccc(Cl)c2)oc1NCc1ccccc1	-2.76%
CCOc1ccc(N2CC(c3nc4ccccc4n3CCCOc3ccc(OC)cc3)CC2=O)cc1 (configuration not stated)	-2.77%
COCCNC(=O)CSc1nnc(-c2ccc(OC)c(OC)c2)c(-c2ccc(OC)c(OC)c2)n1	1.54%
Nc1nc(CN2CCN(Cc3ccccc3)CC2)nc(N2CCCc3ccccc32)n1	active: 63.4%
CCOC(=O)c1cc(-c2ccc(F)cc2)n(CCC(=O)Nc2ccccc2OC)c1C	2.82%
COC(=O)c1ccc2nc(C)cc(Nc3ccc(O)cc3)c2c1	-0.837%
COc1ccc(-c2cn[nH]c2-c2ccc(OCc3ccc(F)cc3)cc2O)cc1OC	active: 44.7%
COc1ccc(NC(=O)Cn2c(=O)n(-c3ccc(Cl)cc3)c(=O)c3c(C)c(C(=O)N(C)C)sc32)cc1Cl	-1.85%
CC(Sc1ncc(S(=O)(=O)c2ccc(C(C)C)cc2)c(N)n1)C(=O)Nc1ccccc1 (configuration not stated)	5.98%
Cc1ccc(CSc2nc(=O)c3c(C)cc(C)nc3n2C2CC2)cc1	-8.22%
COC(=O)CS(=O)(=O)c1ccsc1C(=O)Nc1ccc(F)cc1	active: 38.3%
COc1ccc(NC(=O)c2c(NCc3ccc(C)o3)sc3c2CCC(C)C3)cc1 (configuration not stated)	-2.9%
CC1CN(C(=O)CCC(=O)NCc2cccs2)c2ccccc2O1 (configuration not stated)	15.5%
Cc1ccc(S(=O)(=O)c2cn(C)c3cc(N4CCN(c5ccccc5)CC4)c(F)cc3c2=O)cc1	25.4%
CCOC(=O)c1ccc(NC(=O)c2nc(S(=O)(=O)Cc3ccccc3)ncc2Cl)cc1	-9.81%
CCOc1ccccc1NC(=O)C1CCN(S(=O)(=O)c2ccc(Br)cc2)CC1	-5.45%

Structure (SMILES)	inhibition
Cc1ccc(-n2nc(C(=O)N3CCCCC3C)c(=O)n(C)c2=O)cc1 (configuration not stated)	-0.466%
Cc1nn(CCCC(=O)NCc2ccccc2)c(=O)c2c1sc1ccccc12	23.5%
CC(=O)c1cccc(N2C(=NC(=O)CCc3ccccc3)SC3CS(=O)(=O)CC32)c1 (configuration not stated)	active: 31.8%
COc1ccc(Cn2nnc3c(=O)[nH]c(C4CCCN(C(=O)c5ccccc5Cl)C4)nc32)cc1OC (configuration not stated)	3.55%
Cc1ccc(C)c(NC(=O)C(=O)NCC(c2cccnc2)N2CCN(c3ccc(F)cc3)CC2)c1 (configuration not stated)	-20.7%
N#Cc1cc2c(=O)n3ccccc3nc2n(-c2nnc(SCc3ccc(F)cc3)s2)c1=O	-7.66%
O=C(NCCCN1CCN(c2ccc(F)cc2)CC1)c1cc2c(s1)-c1ccccc1OC2	-13.8%
CCOC(=O)c1ccc2c(c1)N(CC(=O)Nc1cc(F)ccc1F)C(=O)c1ccccc1S2	-8.77%
CC1=C(C(N)=O)C(c2cccc(C)c2)n2nc(-c3ccc(Cl)cc3)nc2N1 (configuration not stated)	-0.579%
CSc1ccccc1NC(=O)C1=CC(c2ccc3c(c2)OCO3)=NS(=O)(=O)N1C	7.21%
CCOc1ccc(-c2nc3c(c(CC)nn3-c3ccccc3)c3cc(OC)c(OC)cc23)cc1	-7.13%
Cc1cccc(-c2nc3cc(NC(=O)Cc4ccc(Cl)cc4)ccc3o2)c1	2.59%
CCOC(=O)CCN(Cc1ccccc1)S(=O)(=O)c1csc(C(N)=O)c1	-5.41%
CCN(C(=O)Cn1nc2c3cc(F)ccc3n(Cc3cccc(C)c3)cc-2c1=O)c1cccc(C)c1	0.778%
COc1ccc(C(CNC(=O)c2cc(F)c(F)c(F)c2F)N2CCOCC2)cc1 (configuration not stated)	active: 39.8%
Cn1ccc2cc(S(=O)(=O)N3CCCN(C(=O)Nc4ccc(Br)cc4)CC3)ccc21	19.8%
Cc1ccc(Nc2c(-c3ccc(N(C)C)cc3)nc3ccccn23)cc1	0.696%
CCOc1ccccc1C(=O)N(Cc1ccc(N(C)C)cc1)Cc1ccco1	-4.66%
O=C(c1cccc(Cl)c1)N1CCC(c2nc3c(nnn3Cc3ccc(F)cc3F)c(=O)[nH]2)CC1	-19.7%
Cc1ccc(-c2nnc(Nc3ccc(Cl)cc3)c3ccccc23)cc1S(=O)(=O)NCC1CCCO1 (configuration not stated)	-8.81%
COc1cc(C(=O)Nc2ccccc2OCc2cc(=O)n3cc(C)sc3n2)cc(OC)c1OC	-3.08%
COc1ccc(C(=O)c2cn(Cc3ccccc3F)c3ccc(F)cc3c2=O)cc1	20.7%
COc1ccc(-c2[nH]c(-c3ccc(OC)c(OC)c3)nc2SCC(=O)Nc2ccccc2)cc1	-14.7%
